# Data taken from the supplement of paper PMC8728848.
# This is one part of the list.
# B1: SIGNR8 (Mus musculus) (protein)
# chain: MAGEPEFHQSKNHEEEVTSGEQGFAEHDPEGLICSSKSLQGHLTQVPWLLLLLISLGLFLLMLATLVQVSRIRAYSQGQTQDQQGSSSLDKVAVPREQTHSGLEQIQQIQQQLTQFNASLAGLCRPCPWDWELFQGSCYLFSRTLGSWETSASSCEDLGAHLVIVNSVSEQRFMKYWNVRKNQRSWIGLSDHIHEGSWQWVDGSALKFSFWKEGEPNNDGDEDCVELFMDDWNDNKCTEQNFWVCEQPSAPCPHH
# What was measured:
# Assay in all cases: glycan array binding signal (z-score within array); higher = stronger binding
# Conditions in all cases: glycan notation: IUPAC condensed, linker removed
# [1] = molecular target: GlcNAc(b1-4)GlcNAc(b1-4)GlcNAc(b1-4)GlcNAc(b1-4)GlcNAc
# How it was run: (§1)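 Arrays were curated from the Consortium for Functional Glycomics database, 3228 in total, and kept only where the protein sequence was available. Binding is expressed as a within-array Z-score. This score was averaged across arrays of the same protein sequence at different concentrations or buffers and across linkers, and negative values can be read as non-binding.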
# [2] = molecular target: GlcNAc(b1-4)GlcNAc(b1-4)GlcNAc(b1-4)GlcNAc(b1-4)GlcNAc(b1-4)GlcNAc
# How it was run: as §1
# [3] = molecular target: GlcNAc(b1-4)[GlcNAc(b1-6)]GalNAc
# How it was run: as §1
# [4] = molecular target: GlcNAc(b1-6)Gal(b1-4)GlcNAc
# How it was run: as §1
# [5] = molecular target: GlcNAc(b1-6)GalNAc
# How it was run: as §1
# [6] = molecular target: Kdn(a2-3)Gal(b1-3)GlcNAc
# How it was run: as §1
# [7] = molecular target: Kdn(a2-3)Gal(b1-4)GlcNAc
# How it was run: as §1
# [8] = molecular target: Man(a1-2)Man(a1-2)Man(a1-3)Man
# How it was run: as §1
# [9] = molecular target: Man(a1-2)Man(a1-2)Man(a1-6)[Man(a1-3)]Man
# How it was run: as §1
# [10] = molecular target: Man(a1-2)Man(a1-3)Man
# How it was run: as §1
# [11] = molecular target: Man(a1-2)Man(a1-3)[Man(a1-2)Man(a1-6)]Man
# How it was run: as §1
# [12] = molecular target: Man(a1-2)Man(a1-3)[Man(a1-2)Man(a1-6)]Man(a1-6)[Man(a1-2)Man(a1-2)Man(a1-3)]Man(b1-4)GlcNAc(b1-4)GlcNAc
# How it was run: as §1
# [13] = molecular target: Man(a1-2)Man(a1-3)[Man(a1-6)]Man(a1-6)[Man(a1-2)Man(a1-3)]Man(b1-4)GlcNAc(b1-4)GlcNAc
# How it was run: as §1
# [14] = molecular target: Man(a1-2)Man(a1-6)[Man(a1-3)]Man(a1-6)[Man(a1-2)Man(a1-2)Man(a1-3)]Man(b1-4)GlcNAc(b1-4)GlcNAc
# How it was run: as §1
# [15] = molecular target: Man(a1-3)[Man(a1-6)]Man
# How it was run: as §1
# [16] = molecular target: Man(a1-3)[Man(a1-6)]Man(a1-6)[Man(a1-2)Man(a1-3)]Man(b1-4)GlcNAc(b1-4)GlcNAc
# How it was run: as §1
# [17] = molecular target: Man(a1-3)[Man(a1-6)]Man(a1-6)[Man(a1-3)]Man(b1-4)GlcNAc(b1-4)GlcNAc
# How it was run: as §1
# [18] = molecular target: Man(a1-3)[Man(a1-6)]Man(b1-4)GlcNAc(b1-4)GlcNAc
# How it was run: as §1
# [19] = molecular target: Man(b1-4)GlcNAc
# How it was run: as §1
# [20] = molecular target: Neu5Ac(a2-3)Gal
# How it was run: as §1
# [21] = molecular target: Neu5Ac(a2-3)Gal(b1-3)GalNAc
# How it was run: as §1
# [22] = molecular target: Neu5Ac(a2-3)Gal(b1-3)GalNAc(b1-3)Gal(a1-4)Gal(b1-4)Glc
# How it was run: as §1
# [23] = molecular target: Neu5Ac(a2-3)Gal(b1-3)GalNAc(b1-3)Gal(b1-4)GlcNAc
# How it was run: as §1
# [24] = molecular target: Neu5Ac(a2-3)Gal(b1-3)GalNAc(b1-4)[Neu5Ac(a2-3)]Gal(b1-4)Glc
# How it was run: as §1
# [25] = molecular target: Neu5Ac(a2-3)Gal(b1-3)GalNAc6S
# How it was run: as §1
# [26] = molecular target: Neu5Ac(a2-3)Gal(b1-3)GlcNAc
# How it was run: as §1
# [27] = molecular target: Neu5Ac(a2-3)Gal(b1-3)GlcNAc6S
# How it was run: as §1
# [28] = molecular target: Neu5Ac(a2-3)Gal(b1-3)[Fuc(a1-4)]GlcNAc
# How it was run: as §1
# [29] = molecular target: Neu5Ac(a2-3)Gal(b1-3)[Fuc(a1-4)]GlcNAc(b1-3)Gal(b1-4)[Fuc(a1-3)]GlcNAc
# How it was run: as §1
# [30] = molecular target: Neu5Ac(a2-3)Gal(b1-3)[Neu5Ac(a2-3)Gal(b1-4)]GlcNAc
# How it was run: as §1
# [31] = molecular target: Neu5Ac(a2-3)Gal(b1-3)[Neu5Ac(a2-6)]GalNAc
# How it was run: as §1
# [32] = molecular target: Neu5Ac(a2-3)Gal(b1-4)Glc
# How it was run: as §1
# [33] = molecular target: Neu5Ac(a2-3)Gal(b1-4)GlcNAc
# How it was run: as §1
# [34] = molecular target: Neu5Ac(a2-3)Gal(b1-4)GlcNAc(b1-2)Man(a1-3)[Neu5Ac(a2-3)Gal(b1-4)GlcNAc(b1-2)Man(a1-6)]Man(b1-4)GlcNAc(b1-4)GlcNAc
# How it was run: as §1
# [35] = molecular target: Neu5Ac(a2-3)Gal(b1-4)GlcNAc(b1-3)Gal(b1-4)GlcNAc
# How it was run: as §1
# [36] = molecular target: Neu5Ac(a2-3)Gal(b1-4)GlcNAc(b1-3)Gal(b1-4)GlcNAc(b1-3)Gal(b1-4)GlcNAc
# How it was run: as §1
# [37] = molecular target: Neu5Ac(a2-3)Gal(b1-4)GlcNAc(b1-3)Gal(b1-4)[Fuc(a1-3)]GlcNAc
# How it was run: as §1
binder,measurement,setting,value
B1,glycan array binding signal (z-score),[1],-0.407
same,glycan array binding signal (z-score),[2],-0.406
same,glycan array binding signal (z-score),[3],-0.395
same,glycan array binding signal (z-score),[4],-0.395
same,glycan array binding signal (z-score),[5],-0.374
same,glycan array binding signal (z-score),[6],-0.384
same,glycan array binding signal (z-score),[7],-0.39
same,glycan array binding signal (z-score),[8],-0.4
same,glycan array binding signal (z-score),[9],-0.409
same,glycan array binding signal (z-score),[10],-0.374
same,glycan array binding signal (z-score),[11],-0.393
same,glycan array binding signal (z-score),[12],-0.335
same,glycan array binding signal (z-score),[13],-0.361
same,glycan array binding signal (z-score),[14],-0.394
same,glycan array binding signal (z-score),[15],-0.373
same,glycan array binding signal (z-score),[16],-0.395
same,glycan array binding signal (z-score),[17],-0.393
same,glycan array binding signal (z-score),[18],-0.39
same,glycan array binding signal (z-score),[19],-0.395
same,glycan array binding signal (z-score),[20],-0.389
same,glycan array binding signal (z-score),[21],-0.403
same,glycan array binding signal (z-score),[22],-0.377
same,glycan array binding signal (z-score),[23],-0.397
same,glycan array binding signal (z-score),[24],-0.398
same,glycan array binding signal (z-score),[25],-0.383
same,glycan array binding signal (z-score),[26],-0.384
same,glycan array binding signal (z-score),[27],-0.39
same,glycan array binding signal (z-score),[28],-0.394
same,glycan array binding signal (z-score),[29],-0.393
same,glycan array binding signal (z-score),[30],-0.398
same,glycan array binding signal (z-score),[31],-0.407
same,glycan array binding signal (z-score),[32],-0.388
same,glycan array binding signal (z-score),[33],-0.404
same,glycan array binding signal (z-score),[34],-0.396
same,glycan array binding signal (z-score),[35],-0.407
same,glycan array binding signal (z-score),[36],-0.409
same,glycan array binding signal (z-score),[37],-0.404
